# Measurements reported in publication PMC4336329 (PLoS ONE, 2015).
# The campaign covered roughly 310,000 compounds. About 2,200 (0.71%) showed an effect of 50% or more. Effects have a minus sign here. The list shows a part of the results.
# Target: human ether-à-go-go-related gene (hERG) potassium channel (human, UniProt Q12809)
# Assay: primary screen, population patch clamp on CHO cells stably expressing hERG
# Sequence of human ether-à-go-go-related gene (hERG) potassium channel (Q12809 whole entry, looked up): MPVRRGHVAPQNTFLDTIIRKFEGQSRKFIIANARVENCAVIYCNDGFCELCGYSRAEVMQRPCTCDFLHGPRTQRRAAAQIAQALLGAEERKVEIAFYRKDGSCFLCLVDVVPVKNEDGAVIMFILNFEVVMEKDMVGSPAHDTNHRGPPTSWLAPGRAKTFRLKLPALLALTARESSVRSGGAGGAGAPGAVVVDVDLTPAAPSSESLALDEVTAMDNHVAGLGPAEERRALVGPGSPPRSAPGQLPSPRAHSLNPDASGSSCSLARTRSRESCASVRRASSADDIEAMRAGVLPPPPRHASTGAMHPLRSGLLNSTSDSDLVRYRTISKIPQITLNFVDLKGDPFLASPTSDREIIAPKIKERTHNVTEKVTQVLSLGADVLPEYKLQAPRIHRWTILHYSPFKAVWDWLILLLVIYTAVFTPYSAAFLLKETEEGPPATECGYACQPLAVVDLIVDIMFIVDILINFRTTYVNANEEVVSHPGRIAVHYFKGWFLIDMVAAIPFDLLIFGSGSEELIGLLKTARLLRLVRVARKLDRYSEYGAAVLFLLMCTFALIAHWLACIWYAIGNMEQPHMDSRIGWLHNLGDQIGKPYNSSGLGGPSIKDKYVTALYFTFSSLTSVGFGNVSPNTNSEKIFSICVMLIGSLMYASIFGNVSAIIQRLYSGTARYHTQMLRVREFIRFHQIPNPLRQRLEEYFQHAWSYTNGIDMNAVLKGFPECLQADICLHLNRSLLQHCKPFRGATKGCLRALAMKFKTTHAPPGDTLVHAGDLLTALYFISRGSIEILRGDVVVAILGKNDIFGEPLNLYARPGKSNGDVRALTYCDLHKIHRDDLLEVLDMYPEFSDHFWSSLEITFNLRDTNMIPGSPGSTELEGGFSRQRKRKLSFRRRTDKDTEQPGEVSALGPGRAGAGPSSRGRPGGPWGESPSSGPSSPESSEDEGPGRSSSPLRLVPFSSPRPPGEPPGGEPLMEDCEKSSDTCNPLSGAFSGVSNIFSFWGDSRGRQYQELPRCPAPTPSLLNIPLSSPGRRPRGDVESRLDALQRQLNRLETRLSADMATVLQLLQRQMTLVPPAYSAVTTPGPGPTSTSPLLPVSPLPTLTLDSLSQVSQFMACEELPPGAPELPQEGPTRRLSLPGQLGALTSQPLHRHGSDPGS
row,Compound,"hERG current change (%, negative = inhibition) at 1uM"
1,C=CCOC(=O)C1=C[C@@H](c2coc3ccccc3c2=O)[C@H](CCCO)[C@@H](OCC)O1,1.09%
2,CC(C)(C)C1CCC(=O)N(CCC#N)CC1 (stereo not shown),14%
3,C=CCn1c(SCC(O)Cn2c3ccccc3c3ccccc32)nnc1-c1ccco1 (stereo not shown),13.9%
4,CCOc1ccc(S(=O)(=O)N2CCN(C(=O)c3cccnc3)CC2)cc1,-11.5%
5,O=[N+]([O-])c1ccc(O)c(/C=N/n2cnc3ccccc32)c1,16.6%
6,Nc1ccc2nc(SCC(=O)Nc3ccc(N4CCOCC4)c(Cl)c3)sc2c1,11.5%
7,CCCn1c(COc2ccccc2OC)nc2ccccc21,1.65%
8,CCN(CC)S(=O)(=O)c1ccc2[nH]c(=O)cc(C(=O)NCC3CCCO3)c2c1 (stereo not shown),3.25%
9,CCOc1ccc(CCNC(=O)CCc2nc(-c3ccc(C)cc3)no2)cc1OCC,1.83%
10,CCc1ccc(C2=NN(CCC(=O)NC3CCCCCC3)C(=O)CC2)cc1,8.39%
11,O=C(CSc1nc2ccccc2c(=O)n1Cc1ccc(Cl)cc1)NCc1cccs1,-13.4%
12,NC1=NC(c2ccc(F)cc2)n2c(nc3ccccc32)N1 (stereo not shown),14%
13,COc1ccc(CN2CCNC(=O)C2CC(=O)NCCc2c[nH]c3ccccc23)c(OC)c1 (stereo not shown),18.1%
14,Cc1ccc(NC(=O)Cn2nnc3ccccc3c2=O)cc1,13.3%
15,Cc1cc(NS(=O)(=O)N(C)C)ccc1C(C)C,13.2%
16,COc1cc(CN2CCc3ccc(NC(=O)CCc4ccccc4OC)cc3C2)ccc1O,-2.31%
17,CCOC(=O)c1oc2ccc3c(c2c1C)C(=O)CC1(CCN(C(=O)OCC)CC1)O3,11.2%
18,Cn1cccc1CC(=O)NNC(=O)Nc1ccc(F)cc1,1.55%
19,Cc1cc(C(=O)OCC(=O)c2cccs2)c2ccccc2n1,18.2%
20,Cc1nn(C)c(C)c1NC(=S)Nc1ccc(S(=O)(=O)Nc2ncccn2)cc1,-3.62%
21,Cc1cc(C(=O)Nc2cc(C)n(Cc3ccc(Cl)cc3)n2)no1,-0.697%
22,CC(C)CN1C(=O)C(=O)N(CC(=O)N2CCN(c3ccccc3)CC2)C1=O,-3.82%

row,Compound,"hERG current change (%, negative = inhibition) at 1uM"
1,Cc1ccc(NC(=O)CSc2nnc(CSc3nc(C)cc(C)n3)n2Cc2ccco2)c(C)c1,-15.8%
2,COCC(C)NC(=O)c1cc(OC)cc(OC)c1 (stereo not shown),13.7%
3,Cc1cc(C)cc(Oc2nc3ccccn3c(=O)c2/C=C(\C#N)C(=O)NC2CCS(=O)(=O)C2)c1 (stereo not shown),13.1%
4,O=C(NCc1ccc2c(c1)OCO2)c1ccc(CS(=O)Cc2cccc(Cl)c2)o1 (stereo not shown),11.8%
5,CC1C/C(=N\NC(=O)CCc2ccc(S(=O)(=O)N3CCOCC3)cc2)CC(C)(C)C1 (stereo not shown),12.2%
6,O=C(CCNS(=O)(=O)c1ccc(Br)cc1)NCc1ccco1,-15.1%
7,COc1ccc(-c2nc(CS(=O)CC(=O)NC(C)CCc3ccccc3)c(C)o2)cc1OC (stereo not shown),3.26%
8,CCOC(=O)c1c(N)c2cc([N+](=O)[O-])cnc2n1C,13.7%
9,CC(=O)N1c2ccc(S(=O)(=O)NCC3CCC(C(=O)NCc4ccc(C)cc4)CC3)cc2CC1C (stereo not shown),13%
10,Cc1ccccc1-n1c(SCC(=O)N2CCC(C(=O)O)CC2)nnc1-c1ccncc1,19.5%
11,COCCNC(=O)Cn1cc2c(n1)CCCCC2,7.41%
12,CCOC(=O)N1CCN(c2ccc3nnnn3n2)CC1,-5.84%
13,O=C(Nc1cccc(-c2ccc(N3CCOCC3)nn2)c1)c1ccccc1,-0.908%
14,Cn1nccc1C(=O)Nc1cccc(S(=O)(=O)N2CCOCC2)c1,17.5%
15,O=C(c1ccccc1Cl)N1CCSCC1,13.5%
16,Cn1cnc2cc(NCc3ccc(Cl)cc3)ccc21,5.06%
17,CCOC(=O)c1[nH]c(=O)[nH]c1CN(Cc1ccco1)Cc1[nH]c(=O)[nH]c1C(=O)OCC,-11.2%
18,CC(C)c1ccccc1NC(=O)COC(=O)c1cc(=O)[nH]c(=O)[nH]1,5.39%
19,COC(=O)C1=C(C)Nc2[nH]c(=S)[nH]c(=O)c2C1c1ccc(OC)cc1 (stereo not shown),18.2%
20,COc1cc(OC)cc(C(=O)N2CCN(c3ccccn3)CC2)c1,9.99%
21,Cc1cccc(N2CCc3c2nc2ccccc2c3N)c1.O=C(O)C(=O)O,-2.87%
22,COc1cc(OC)c2ccc(=O)oc2c1C(CCN1CCCC1)c1ccc(N(C)C)cc1 (stereo not shown),6.42%

row,Compound,"hERG current change (%, negative = inhibition) at 1uM"
1,COc1ccccc1CNC(=O)c1cc2c(=O)[nH]c3ccccc3c2n1C,10.5%
2,O=C(c1cc2c(s1)-c1ccccc1S(=O)(=O)C2)N1CCCC1,3.64%
3,COc1ccc(NC(=O)CSC2=NCCN2)cc1.Cl,4.54%
4,CN1C=CC=C/C1=C1/SC(=S)N(Cc2ccccc2)C1=O,11.1%
5,CCCCCCCn1ccc(O)c(CC(=O)OC)c1=O,7.72%
6,O=C(Cc1ccccc1)Nc1ccccc1N1CCN(c2ccccc2)CC1,11.6%
7,O=C(CCCC(=O)N(c1cccc(F)c1)C(C(=O)NC1CCCC1)c1ccc(O)cc1)Nc1ccccn1 (stereo not shown),10.1%
8,COc1cccc(C(=O)COc2ccc3c(C)c(Cc4ccccc4)c(=O)oc3c2C)c1,-1.99%
9,COc1ccc(/C=C/C(=O)OC(C)C(=O)c2ccccc2)cc1OC (stereo not shown),-4.85%
10,O=C1CC(Nc2ccccc2)C(=O)N1CCc1ccccc1 (stereo not shown),19.4%
11,CC(=O)N[C@@H](Cc1c[nH]c2ccccc12)C(=O)NC1CCCc2ccccc21 (stereo partly shown),19.5%
12,Br.COC(=O)CN1C2=NCCCN2c2ccccc21,-3.47%
13,CC1CCN(C(=O)CC(NC(N)=O)c2ccccc2Cl)CC1 (stereo not shown),13.8%
14,O=C(Nc1nnc2n1CCS2)c1ccc(Br)o1,14.6%
15,COC(=O)c1ccc(CON2C(=O)c3ccccc3C2=O)cc1,6.87%
16,COC(=O)Cc1c(C(=O)OC)nnn1-c1ccc(OC)cc1,14.5%
17,COc1ccc(C(=O)Nc2ccc(S(=O)(=O)N3CCOCC3)cc2)cc1OC,-2.02%
18,CCC(C)[C@H](NC(=O)NCCC1=CCCCC1)C(=O)O (stereo partly shown),0.285%
19,O=C(NCc1cccnc1)C1CC(c2ccccc2Cl)=NO1 (stereo not shown),11.1%
20,COc1ccccc1NS(=O)(=O)c1ccc(OC)c([N+](=O)[O-])c1,12.7%
21,Cc1nn(C)cc1NC(=O)c1cc2nc(-c3ccco3)cc(C(F)(F)F)n2n1,5.38%
22,COc1ccc(NS(=O)(=O)c2ccc3oc(SC4CCOC4=O)nc3c2)cc1 (stereo not shown),-0.37%

row,Compound,"hERG current change (%, negative = inhibition) at 1uM"
1,CCC(C)C(NC(=O)C1CCC(C)CC1)C(=O)Nc1cc(OC)ccc1OC (stereo not shown),-7.01%
2,Cc1cc(OCC(O)CN2CCOCC2)cc(C)c1Cl.Cl (stereo not shown),23.7%
3,CCN(CC)C(=O)CN1CCN(Cc2ccc3c(c2)OCO3)CC1.O=C(O)C(=O)O,11.5%
4,COc1ccc(S(=O)(=O)N2CCCCC2)cc1NC(=O)Cc1ccsc1,8.14%
5,CC(C)C1(C)N=C(c2ncccc2C(=O)[O-])NC1=O.[Na+] (stereo not shown),13.6%
6,O=C(NC(Cc1ccccc1)C(=O)O)/C(=C\c1ccc(Cl)cc1)NC(=O)c1ccco1 (stereo not shown),7.15%
7,O=C1/C(=C/c2ccc([N+](=O)[O-])cc2)CCc2ccccc21,9.4%
8,CCC(C)(C)N=C(NC#N)Nc1cccnc1,5.08%
9,COc1cccc(N2CCN(c3ccc4nnc(CCC(=O)Nc5cc(C)ccn5)n4n3)CC2)c1,7.75%
10,CN(C)CCN1C(=O)C(=O)/C(=C(/O)c2ccc(F)cc2)C1c1ccccc1 (stereo not shown),5.54%
11,Cc1ccc(NC(=O)[C@H](NC(=O)[C@@H]2Cc3ccccc3CN2)c2ccccc2)cc1,-10.1%
12,CCC(=O)Nc1ccc(NC(=O)CSc2nnc(-c3ccc(O)cc3)n2CC2CCCO2)cc1 (stereo not shown),-3.28%
13,O=C(NCc1ccc2c(c1)OCO2)c1ccncc1,-6.47%
14,O=C(NC1CCCCC1)c1cc(-c2cccc(Cl)c2)on1,9.26%
15,CCn1nnc(NC(=O)c2cccnc2Cl)n1,13.4%
16,Cc1ccccc1/C=N/NC(=O)c1ccc(-n2cnnn2)cc1,11.7%
17,Cc1cccc(NC(=O)C2c3ccccc3C(=O)N3CCc4ccccc4C23)n1 (stereo not shown),-14.7%
18,CCOc1cc(C(=S)N2CCCC2)ccc1OC(=O)Cc1ccc(F)cc1,2.19%
19,COc1ccc(C2NC(=O)N(C)C(C)=C2[N+](=O)[O-])cc1 (stereo not shown),7.07%
20,O=C(CCCC(=O)Nc1cccc(Br)c1)N/N=C/c1cc([N+](=O)[O-])ccc1O,2.39%
21,CC1Oc2ccccc2N(CC(=O)NCc2ccccc2)C1=O (stereo not shown),6.03%
22,CC(=O)c1c(Nc2cccc(F)c2)oc(C)cc1=O,12.5%
